In publication PMC4336329 (PLoS ONE, 2015):
Screen size: about 310,000 compounds; about 14,000 (4.5%) showed an effect of 50% or more. Effects have a minus sign here. Some of the results follow.

Each compound was assayed against human ether-à-go-go-related gene (hERG) potassium channel (human, UniProt Q12809) (assay: primary screen, population patch clamp on CHO cells stably expressing hERG).
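Also: peak tail current of the secondary pulse compared with the same well before compound.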

Sequence of human ether-à-go-go-related gene (hERG) potassium channel (Q12809 whole entry, looked up): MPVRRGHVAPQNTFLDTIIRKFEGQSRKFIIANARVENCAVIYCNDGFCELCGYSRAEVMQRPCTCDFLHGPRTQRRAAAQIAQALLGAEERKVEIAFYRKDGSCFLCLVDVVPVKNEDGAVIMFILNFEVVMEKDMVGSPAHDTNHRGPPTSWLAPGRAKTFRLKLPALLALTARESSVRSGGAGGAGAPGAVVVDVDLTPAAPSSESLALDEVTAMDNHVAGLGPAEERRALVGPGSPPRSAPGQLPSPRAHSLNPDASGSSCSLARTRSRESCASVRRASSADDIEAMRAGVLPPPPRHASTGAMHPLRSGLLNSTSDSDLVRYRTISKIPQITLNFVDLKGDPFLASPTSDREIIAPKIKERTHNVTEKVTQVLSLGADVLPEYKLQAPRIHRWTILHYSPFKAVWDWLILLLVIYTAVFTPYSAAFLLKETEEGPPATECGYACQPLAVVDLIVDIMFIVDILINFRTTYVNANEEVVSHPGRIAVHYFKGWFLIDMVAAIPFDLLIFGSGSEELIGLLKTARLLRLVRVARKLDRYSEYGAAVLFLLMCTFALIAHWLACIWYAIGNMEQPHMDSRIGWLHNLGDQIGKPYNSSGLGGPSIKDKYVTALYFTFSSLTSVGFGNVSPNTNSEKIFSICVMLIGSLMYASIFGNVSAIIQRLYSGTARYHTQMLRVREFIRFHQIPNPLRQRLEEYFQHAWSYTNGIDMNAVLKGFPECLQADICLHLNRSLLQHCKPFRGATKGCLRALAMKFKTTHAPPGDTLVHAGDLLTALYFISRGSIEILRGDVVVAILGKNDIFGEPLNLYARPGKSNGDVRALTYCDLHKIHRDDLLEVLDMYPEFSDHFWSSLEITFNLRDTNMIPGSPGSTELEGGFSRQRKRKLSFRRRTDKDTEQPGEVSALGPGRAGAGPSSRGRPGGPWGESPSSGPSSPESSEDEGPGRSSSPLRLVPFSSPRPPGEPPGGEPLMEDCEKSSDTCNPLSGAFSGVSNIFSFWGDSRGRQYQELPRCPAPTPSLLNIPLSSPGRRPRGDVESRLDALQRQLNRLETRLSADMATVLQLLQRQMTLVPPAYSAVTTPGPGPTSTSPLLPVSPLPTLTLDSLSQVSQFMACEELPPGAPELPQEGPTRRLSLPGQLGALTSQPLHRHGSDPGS

SMILES | hERG current change (%, negative = inhibition) at 10uM [%]
CN(C)c1ccc(-c2cc(O)c3ncccc3c2)cc1.O=C(O)C(F)(F)F | 16.5
O=C(CSc1nnc(CNC(=O)c2ccco2)o1)Nc1ccc(Cl)cc1 | 12.9
CCCCNC(=S)NNC(=O)CCn1nc(C)c(Br)c1C | 1.46
CC(C)(C)c1ccc(N2C(=O)CC(c3ccccc3)C2=O)cc1 (stereo not shown) | 11.7
CN(C)C(=O)CSc1n[nH]c(=O)n1CCc1ccccc1 | 27.3
O=C(Nc1ccccc1Cl)C1Cc2ccccc2O/C1=N\O (stereo not shown) | 8.8
CN(C(=O)c1coc(=O)c2ccccc12)c1ccc(Br)cc1 | -4.83
c1ccc2c(NCCCN3CCOCC3)c3ccccc3nc2c1 | -66.6
CC(=O)Nc1ccccc1NC(=O)C/C(C)=N/NC(=O)c1ccccn1 | 16.1
COc1ccc(C)cc1NC(=O)CSc1nnc2ccc(-c3ccccn3)nn12 | -0.164
NC(=O)CN1C(=O)C(=O)N(Cc2cccc(C(F)(F)F)c2)C1=O | 7.41
Cc1ccc(Sc2ncccc2C(=O)NC2CCCCCC2)cc1C | -0.588
S=C(Nc1ccc(Br)cc1Cl)NN1CCOCC1 | -8.03
O=C(C1CC1)N1CCc2sccc2C1c1ccc(Cl)cc1 (stereo not shown) | -13.8
CN1C(=O)c2cccc3c(N(C)C)ccc(c23)C1=O | 9.29
CN(C)/N=C1\C(=O)N(CN2CCN(c3ccccc3)CC2)c2ccccc21 | 11.6
O=c1c2sc3ccccc3c2[nH]c(=S)n1CCN1CCOCC1 | 12.7
CCn1cc(C(=O)NCCC(C)C)c(=O)c2cc(F)c(N3CCN(C)CC3)cc21 | -7.73
O=S(=O)(c1ccc(Br)c2nsnc12)N1CCOCC1 | 1.43
O=c1ccc2cc3ccoc3cc2o1 | 8.89
COc1cccc(NC(=O)c2ccc(-c3ccc([N+](=O)[O-])cc3)o2)c1 | -36.2
CCOC(=O)CC(NC(=O)c1cccs1)c1ccc(OCC)cc1 (stereo not shown) | -20.2
Cc1ccc(C)c(S(=O)(=O)N2CCN(C(=O)CCNC(=O)c3ccc(Br)cc3)CC2)c1 | -33.4
Cc1cc2[nH]c(=O)c(=O)[nH]c2cc1S(=O)(=O)Nc1cccc(Cl)c1 | 14.6
COc1ccc(N2CCN(C(=O)CCC(=O)N3CCOc4ccc(Cl)cc43)CC2)cc1 | -52.8
COC(=O)c1c(NC(=O)COC(=O)C2CCC2)sc(C)c1C | -13.4
Cc1ccnc(NC(=O)C2CCN(S(=O)(=O)c3ccc4c(c3)CC(C)N4C(=O)C3CCC3)CC2)c1 (stereo not shown) | -0.431
Cc1ccc(Cl)cc1N1CCN(C(=O)c2ccc3c(c2)CCN3S(C)(=O)=O)CC1 | 8.77

SMILES | hERG current change (%, negative = inhibition) at 10uM [%]
O=C1c2ccccc2S(=O)(=O)N1Cc1cc(=O)n2ccsc2n1 | -0.428
CN1CCN(NC(=O)Nc2ccc(F)cc2)CC1 | 14.1
Oc1ccc(N2CCN(c3nc(-c4cccs4)nc4ccccc34)CC2)cc1 | 16.5
Cc1c(CCO)sc[n+]1CC(=O)OC12CC3CC(CC(C3)C1)C2.[Cl-] | 19.8
COc1ccccc1N(C)S(=O)(=O)c1ccc(C(=O)Nc2ccc(N3CCOCC3)cc2)cc1 | 4.35
COc1ccc(NC(=O)Cn2cnc3sc(C)c(S(=O)(=O)N4CCOCC4)c3c2=O)c(OC)c1 | -9.68
COc1ccc(N(C)C(=O)c2ccc(NC(=O)CCS(=O)(=O)c3cccs3)cc2)cc1 | 15.8
CCOCCCNC(=O)c1cc2cc3cc(OC)ccc3nc2o1 | -7.74
Cc1cc(OCC(=O)NNC(=O)c2ccncc2)cc(C)c1Cl | 14.9
O=c1c2ccc(Cl)cc2nc(-c2ccc([N+](=O)[O-])cc2)n1O | -12.6
Cc1ccc(S(=O)(=O)N(CC2CO2)c2cc(Cl)ccc2Cl)cc1 (stereo not shown) | -6.93
CCc1cc2c(NC(Cc3c[nH]c4ccccc34)C(=O)O)nc(C)nc2s1 (stereo not shown) | 31.3
CCCc1nc(C)c2c(=O)[nH]c(-c3cc(S(=O)(=O)N4CCN(CC)CC4)ccc3OCC)nn12.O=C(O)CC(O)(CC(=O)O)C(=O)O | 0.215
Cc1ccc(-c2csc3ncnc(Nc4ccc(C(=O)O)cc4)c23)cc1.Cl | 11.5
CCC(=O)OC1CC(C)N(C(=O)c2ccccc2)c2ccc(C)cc21 (stereo not shown) | -12.3
COc1ccc(S(=O)(=O)NCC(=O)N(CC(=O)NC(C)(C)C)Cc2cccs2)cc1 | 8.09
CSc1ccc(CN(C)C(=O)C23CC4CC(CC(Cl)(C4)C2)C3)cc1 | 9.08
CCOC(=O)c1[nH]c(C)c(C(=O)OCCOc2cccc(C)c2)c1C | 5.99
CSc1c(CC(=O)Nc2ccccc2C(F)(F)F)n(Cc2ccccc2)c2ccccc12 | 7.04
CC(C)NC(=O)CN1CCC(c2nc3ccccc3[nH]2)CC1 | -8.64
Cc1cc(C(=O)Nc2sccc2C#N)c2ccccc2n1 | 16.5
O=C(CN1CCCCC1)Nc1cc(Cl)ccc1Cl | -0.685
Cc1ccc2c(CN3CC=C(c4ccccc4)CC3)cc(=O)oc2c1C | -2.08
Cc1ccc(CNC(=O)C2CCC(=O)N(CCc3ccc(Cl)cc3)C2)s1 (stereo not shown) | -69.4
CCC(C)(C)n1nnnc1C(c1cccs1)N1CCCCC1 (stereo not shown) | -19.4
COc1cc(/C=C(\C#N)C(=O)Nc2ccccc2F)ccc1OCCN1CCOCC1 | -64.6
COc1ccc(N2CCN(C(=O)CCNC(=O)c3ccc(Br)cc3)CC2)cc1 | -20.2
